This passage reports self-cleavage results from the RNAGym collection of RNA variant scans (doi:10.1093/nar/gkz1192).

The source gives no read counts; variants with many changes may rest on few reads.

B1: CPEB3 Ribozyme (parent)
chain: UAACAGGGGGCCACAGCAGAAGCGUUCACGUCGCAGCCCCUGUCAGAUUCUGGUGAAUCUGCGAAUUCUGCUGUAUAUCUC

This series covers variants of B1. Description: self-cleavage, relative activity (ratio to wild type); higher = more cleavage; in vitro, sequencing. Put shortly:
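Relative activity compares each variant's cleaved/total read fraction with that of the unmutated ribozyme. To get these fractions, barcoded CPEB3 ribozyme libraries from rounds of error-prone PCR were transcribed with T7 RNA polymerase for 5 hours at 37°C and then given 15 min of DNase I treatment before EDTA was added. The RNAs were reverse transcribed with template switching and sequenced on Illumina, and DNA sequencing linked barcodes to variants. A minimum of 5 reads applied, and three batches were averaged.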
A21G U43A G61U U67C U78A: the self-cleavage was found to be 0.14. Turning to G24A A28U G61A, the self-cleavage was 0.13. For U25A C44A U78C the value was 0.18; for U25A U26C U48C, 0.09.

G24A A35U U54A: the self-cleavage is 0.1. On to A21U U51G U74C A77G, for which the self-cleavage was 0.56. Consider G22A U69A U74C, for which the self-cleavage was 0.16. For G24C U58A G63A A64G U76C U80A the value was 0.1; for U25A A28G G30A, 0.24.

Regarding U25A U41G U51C U58A U60C, the self-cleavage was determined as 0.1. For the variant C23U U25C U48C U51C U67C U69A G70U, the self-cleavage was 0.04. Regarding A21G U51C U74C, the self-cleavage stood at 1.08. On to C23G A35U U43A U48C U49C A77U, for which the self-cleavage was determined as 0.06. Take A21U U43A U69C: the self-cleavage was 0.13. For U25A G42A U43C U60C U74G the value was 0.2. In the case of C23A U41C A47C U76C, the self-cleavage worked out at 0.19. Consider A21G U54C A56G U74A, for which the self-cleavage amounted to 0.09.

G22A A35G U51C U60C U66C U72C: the self-cleavage is 0.12. As to G22C U66C U80A, the self-cleavage came to 0.13. As to C23U A45C U58A, the self-cleavage turned out to be 0.17. Take A21U A35G C79G: the self-cleavage was 1.28. In the case of A21U U41C A64U U72A, the self-cleavage was 0.08. As to G24U U41C U43A U58C U60C U66C U67C, the self-cleavage came out at 0.14. As to G22U A35G A65G C71G, the self-cleavage came out at 0.1. Regarding A21G U49A U72C C81U, the self-cleavage is 0.47. Consider A21U U41A U43C A47G U78C, for which the self-cleavage was determined as 0.18. In the case of A21G U48C U60A U80C, the self-cleavage was 0.06.

For G24C U58A U80C, the self-cleavage is 0.45. Take C23A U69C U72C: the self-cleavage was 0.56. In the case of G24A A35G U78C C79U it was 0.46. On to C23U C37U U58C U72C, for which the self-cleavage came to 0.04. In the case of A21U U41C U67C it was 0.24; in that of A21U U54C U60C, 0.28; in that of A21U U25C A45U, 0.07. For C23U U41G A65G, the self-cleavage is 0.06.

As to A21U U31G U43C A57U C79G, the self-cleavage was determined as 0.06. G24C U31A A45G U51C: the self-cleavage was found to be 0.21. For A21U U41A U54G A56G U60G U72C, the self-cleavage came out at 0.06. For C23U U26A A56G U78C, the self-cleavage turned out to be 0.06. A21U G33A A45U U54C: the self-cleavage was found to be 0.1. Take G22U U26C A64G U78C: the self-cleavage was found to be 0.07. Take G24A U26C A35G U66C: the self-cleavage amounted to 0.22. For G24U C29A A57G, the self-cleavage amounted to 0.15. With C23A A28G U41A, the self-cleavage was found to be 0.41.

Consider C23A C40U U69C U74C, for which the self-cleavage was 0.08. For U25A C32A U43A U51A U69C, the self-cleavage worked out at 0.22.

In the case of A21U A75U U76A U80A, the self-cleavage is 0.38. With U25A A45G U78C, the self-cleavage was 0.07. In the case of G24A A35U G55U A57G A64G C71U, the self-cleavage was determined as 0.04. With A21U U25C U58A, the self-cleavage stood at 0.17. With U25A C62U U74C, the self-cleavage was 0.08. For C23A A57G U67A U72C U80G the value was 0.09; for C23U U48C U69C U72A U74C, 0.09. Turning to A21G U49C A64C, the self-cleavage came to 0.15.

Consider U25A C40U U60C A65G U69A U80C, for which the self-cleavage is 0.07. In the case of A21U A28U U76C it was 0.18. For C23A U31A A64G, the self-cleavage came to 0.11. In the case of G24A G36U G70C A75G, the self-cleavage is 0.08. For G22U U26C U41A U72C the value was 0.16.

Take A21U U48C C62A: the self-cleavage turned out to be 0.16.

Turning to G24C U41A U51C U60C A77G, the self-cleavage was 0.05. In the case of C23G U26A A47G U72A it was 0.14; in that of C23A A45U A47U U49C U60C U67A, 0.06. Turning to C23U U66C U69A U74C, the self-cleavage was 0.06. Regarding A21G U48C U54C, the self-cleavage is 0.18. Consider C23U U26C U31C U49C U78A, for which the self-cleavage is 0.37. Regarding U25A A45G U72A, the self-cleavage worked out at 0.2. Consider U25A U43A U49C U60A U72G, for which the self-cleavage worked out at 0.14. With G24A U31A U67C, the self-cleavage came to 0.06. With G24U U41A A47G U67A, the self-cleavage amounted to 0.21. As for C23U C38A G70U, the self-cleavage was 0.07. In the case of C23U A28G U31A it was 0.19. In the case of G24U U41A U48C, the self-cleavage came to 0.07.

As to C23U U49G U67C, the self-cleavage worked out at 0.12. As to G24A U26C A35U U43C, the self-cleavage turned out to be 0.29. As for A21G U51C A57G, the self-cleavage is 0.24. Turning to C23A A28G A35U U43A U67C A77G, the self-cleavage came to 0.07. For the variant U25A U41A A56G U78A, the self-cleavage came to 0.08. G24A A45U U76C U78C: the self-cleavage worked out at 0.11. With C23U G30U A35U A45G U67A, the self-cleavage is 0.08. On to G24A U26A U41G G53A, for which the self-cleavage was 0.23. In the case of A21G U43C A45U G46C A57U it was 0.15. For G24A A47G A64G U72C the value was 0.1; for A21G U48C U49C U78A, 0.35. Consider G24A A28G A35G A47G A64G U72C, for which the self-cleavage was 0.12. On to U25A A45U A57G A77G, for which the self-cleavage came to 0.16. In the case of G22C U41A U60A it was 0.2; in that of A21U U43C G53C A77U, 0.16. Regarding U25A A57G U67C, the self-cleavage turned out to be 0.12. G24A U51C U60C U74A: the self-cleavage is 0.09. With C23U U26C A65G U67C A75G, the self-cleavage stood at 0.08. In the case of A21G U48C A57G it was 0.59. As to A21G U43C U54C U60C U80A, the self-cleavage turned out to be 0.2.

On to C23A U31C U41G U66C U67A, for which the self-cleavage was 0.09.

Consider U25A C27G U41C U78C, for which the self-cleavage amounted to 0.09. For A21G U69C U72A U78C the value was 0.21; for A21G U43A U67A U69C, 0.13; for A21U U26C G61A, 0.4.

For the variant A21U U25C U78A U80A, the self-cleavage turned out to be 0.1. Consider G22A U31A A35G U41A C62G A64G, for which the self-cleavage amounted to 0.16. G24U U25A U26G U41A U49C U80C: the self-cleavage was determined as 0.23. On to A21U G24A U41C U48C U51A A64G, for which the self-cleavage turned out to be 0.07. C23A U31C A35U U51A U54C A56G U60A: the self-cleavage came out at 0.08.

In the case of A21U U26A C37A U58C G70A U78C, the self-cleavage amounted to 0.03. Consider U25A A28G A64G, for which the self-cleavage amounted to 0.45. Regarding G24A U48C A56G, the self-cleavage is 0.23. Regarding U25A G36C U74A, the self-cleavage was 0.07. For the variant U25A A45U A56G, the self-cleavage came to 0.09. Consider U25A U26A U80C, for which the self-cleavage stood at 0.25. A21G U43C U66C U72A U78C U80C: the self-cleavage turned out to be 0.43. As to C23A U25A C29G A35G U41C U51A A65G, the self-cleavage was 0.13. Regarding G24A U26A A28G, the self-cleavage is 0.18.

As for C23A U41A A57G U76C U78C, the self-cleavage stood at 0.05. Turning to A21G U60A U69A, the self-cleavage is 0.11. For U25A A45U U72A, the self-cleavage is 0.16. Turning to C23G U25A A75G, the self-cleavage turned out to be 0.18. For the variant G22A U41A U49A U67A U80C, the self-cleavage was found to be 0.06. Take A21U G24A C79A: the self-cleavage is 0.06. Regarding G22A U26C A57G U67C, the self-cleavage came to 0.09. Regarding G24C U69C A75G U78A, the self-cleavage is 0.09. Consider G24U U41C A57C U69C, for which the self-cleavage was determined as 0.15. For C23U U41C U58A U76C, the self-cleavage stood at 0.09. Regarding A21G U76C U78C, the self-cleavage is 0.56.

In the case of A21G U41G U66C, the self-cleavage is 0.1. Regarding A21U U25C C40U A45C C68G U69C, the self-cleavage is 0.04.

Regarding C23U U54A U72C U76C, the self-cleavage amounted to 0.2. For the variant U25A G33A U60C U72C U74C, the self-cleavage worked out at 0.07. For A21U U54C A64U U78C, the self-cleavage was 0.1. With U25A A35C U49C U78A, the self-cleavage came to 0.05. Take U25A U26C U43C U76C: the self-cleavage worked out at 0.09. In the case of U25A A47G U48C U66C U72C it was 0.18; in that of A21U A65U U69C, 0.12. On to C23U U43C U48C, for which the self-cleavage is 0.41. In the case of C23U A28G U31C U43A U49C, the self-cleavage was 0.29.

As to A21G U48C U72G, the self-cleavage came out at 0.3. Regarding G24A A35G U51A, the self-cleavage was 0.47. With A21U U41C A47G, the self-cleavage was determined as 0.44. For the variant A21U U25A C44U C62U A65G, the self-cleavage came to 0.03. In the case of U25A U26C C38G U69A U74A it was 0.16. As to G22A A28G U72C, the self-cleavage came out at 0.48. With U25A U31C U60A, the self-cleavage stood at 0.09. C23G G53U U60A: the self-cleavage amounted to 0.28. In the case of G22U C40G C62U it was 0.13; in that of G22A U26C A35G U41A, 0.06; in that of C23U G24A A45G, 0.19. Consider C23A G36A A56U A65G, for which the self-cleavage was 0.18. On to G22A U41A A56G A64U U72C, for which the self-cleavage was found to be 0.05. In the case of A21G U43G A75G it was 0.12; in that of U25A U26C U41C U48A U69C A77G, 0.2; in that of C23U U26A U49C U72C, 0.13. As for G22A U41A U49C U69A G73A, the self-cleavage is 0.06.

For A21U A45G G53A A64G, the self-cleavage is 0.07.

C23U U54C U66C: the self-cleavage is 0.34. For the variant A21U C29U U43C A47G A64G, the self-cleavage is 0.26. As to U25A U31C U41A A45U A56G, the self-cleavage was found to be 0.09. For the variant A21U U41G A47G A65U U66C U69A, the self-cleavage is 0.18.

Take A21G U67A A75G: the self-cleavage was found to be 0.11.

U25A U31G A45G U54G U78C: the self-cleavage is 0.04. Turning to G24U U26A U43A A56G U58G U69C, the self-cleavage was 0.2. For U25A C40U A56C the value was 0.06. With G24C U49A U66C U72A, the self-cleavage was determined as 0.15. On to G24A U26A C29G A56G U78A, for which the self-cleavage turned out to be 0.04. U25A A28C C40A U43A U66C U69C: the self-cleavage came out at 0.06.

G24A A28G U43A A45U U60C: the self-cleavage worked out at 0.33. Turning to G22U U25C U48C, the self-cleavage was 0.24. In the case of G24A A28G A65G U74A it was 0.14; in that of U25A G42C A56U A64U, 0.19.
